Experimental data as given in PubChem BioAssay AID504832 (National Center for Advancing Translational Sciences (NCATS), 2011).
About 18,000 (5.8%) of roughly 310,000 compounds were called active. The shares of active, inactive and inconclusive entries below differ from those in the screen. Calls come from the whole dose curve; as a rule, active = well fitted inhibition curve with a large enough effect; inconclusive = small, poorly fitted or top-dose-only effect, or another doubt; inactive = no such curve, though single readings can be large or run the other way. Potencies of inconclusive entries are left out as doubtful fits.

experiment: Primary qHTS for delayed death inhibitors of the malarial parasite plastid, 48 hour incubation; conditions: P. falciparum luciferase growth in erythrocytes; series mostly up to 28.7 µM; activity change, negative = inhibition: at the top concentration
Summary of the method: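 Firefly luciferase activity from engineered P. falciparum reports growth; inhibitors lower the luminescent signal. Cultures contained 2% hematocrit erythrocytes at 0.1% final parasitemia.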
% is set by controls: 0 for no effect and ±100 for the full control effect; potency is the fitted concentration of half-maximal effect; tags give direction and shape of the fitted curve.

SMILES | Potency | activity change, negative = inhibition
O=C(c1cccc(Br)c1)N1CCN(c2cnn(-c3ccccc3)c(=O)c2Cl)CC1 | inconclusive [inhibitor, single point] | 
C1CCN=C(Nc2nn[nH]n2)CC1 |  | inactive: -4.24%
COC(=O)c1ccc(Nc2cc(C)nc3ccccc23)cc1 | inconclusive [inhibitor, full curve, poor fit] | 
Cc1cc(C)cc(NC(=S)NC(=O)C2CC2)c1 | inconclusive [inhibitor, single point] | 
CC(=O)Nc1ccccc1NC(=O)c1ccccc1-c1ccccc1 | inconclusive [inhibitor, partial curve, poor fit] | 
Cc1cc(N2C(=O)C3CCCN3C2c2sccc2C)no1 (configuration not stated) |  | inactive: 13.1%
CCOc1ccccc1C=Nc1ccccc1C(=O)Nc1ccccc1 |  | inactive: 9.76%
c1ccc(-c2ccc(CN3C[C@@H]4C(c5ccccc5)C5(c6ccccc6)CC4(C5)[C@H]3c3ccccc3)cc2)cc1 (some centres not stated) |  | inactive: -3.76%
COc1cccc(-n2c(CN3CCN(c4ccccc4)CC3)nc3ccc([N+](=O)[O-])cc3c2=O)c1 | inconclusive [inhibitor, single point] | 
Cc1cc(Br)ccc1N=C1NC(=O)CS1 |  | inactive: -4.64%
C=CCn1c(CCn2c3ccccc3c3ccccc32)n[nH]c1=S | inconclusive [inhibitor, single point] | 
COCCCN1C(=O)C(=O)/C(=C(/O)c2ccc3c(c2)OCCO3)C1c1ccc(C(=O)OC)cc1 (configuration not stated) | inconclusive [inhibitor, single point] | 
CN(C)c1cc(-c2ccc(Cl)c(Cl)c2)oc(=O)c1Cl |  | inactive: 4.49%
COc1nnc(-c2ccc(C)c(S(=O)(=O)NCC3CCCO3)c2)c2ccccc12 (configuration not stated) | inconclusive [inhibitor, single point] | 
CCOC(=O)N/N=C/c1c[nH]c2ccccc12 |  | inactive: 37.8%
CCN(CC)c1ccc(N=C2C(=O)Nc3ccccc32)cc1 | active: 3.29 µM | 
CCSc1nnc(NC(=O)Cc2ccc(OC)cc2)s1 | inconclusive [inhibitor, partial curve, poor fit] | 
CC(NC(=O)c1cccc(S(=O)(=O)N2CCN(C)CC2)c1)c1ccc(Cl)cc1Cl (configuration not stated) | inconclusive [inhibitor, single point] | 
CC(Sc1nn(-c2ccccc2)c(=S)s1)C(=O)NCC1CCCO1 (configuration not stated) | active: 9.28 µM | 
O=C(NCc1ccco1)c1ccc(Cl)c(S(=O)(=O)N2CCOCC2)c1 | active: 2.33 µM | 
O=C(COc1ccccc1Cl)Nc1cccc(S(=O)(=O)NC2=NCCCCC2)c1 | inconclusive [inhibitor, single point] | 
Cc1ccc(Nc2nc(N)nc(CSc3nc(C)cc(C)n3)n2)cc1 | inconclusive [inhibitor, single point] | 
N#C/C(=N\Nc1cc(Cl)cc(Cl)c1)c1nnc2n1CCCCC2 | inconclusive [inhibitor, single point] | 
CCOC(=O)c1c(NC(=O)C2CCCCC2C(=O)O)sc2c1CCCCC2 (configuration not stated) |  | inactive: 7.52%

SMILES | Potency | activity change, negative = inhibition
Cc1c(Cl)cccc1-n1c(SCC(=O)N(C)Cc2ccccc2)nnc1-c1ccncc1 | inconclusive [inhibitor, single point] | 
CC1CCCCN1C(=O)c1ccc(C(=O)Nc2ccc(F)cc2)cc1 (configuration not stated) | inconclusive [inhibitor, partial curve, poor fit] | 
CN1CCC(N(C)C(=S)Nc2ccc(F)cc2)CC1 |  | inactive: 336%
O=C(Nc1ccc(Cl)cc1)N1CCC(c2nc(-c3cccs3)no2)CC1 |  | inactive: 21.5%
COc1cc(C2C3=C(CC(C)(C)CC3=O)N(C)C3=C2C(=O)CC(C)(C)C3)cc(Br)c1O | inconclusive [inhibitor, partial curve, poor fit] | 
CCC1CCc2c(sc3ncnc(N4CCOCC4)c23)C1 (configuration not stated) | inconclusive [inhibitor, single point] | 
CCOc1ccc2nc(NCCCNS(=O)(=O)c3ccccc3)c(C#N)cc2c1 | inconclusive [inhibitor, single point] | 
O=C1C=C(c2ccc3c(c2)OCCO3)C[C@@H](c2ccc(F)cc2)C1 |  | inactive: -19%
Cc1nc(N2CCOCC2)nc(OC(C)C)c1[N+](=O)[O-] |  | inactive: 7.48%
Cc1ccc(-c2nc3c(c(=O)[nH]c(=O)n3CC(C)C)n2CC(C)C)cc1[N+](=O)[O-] | inconclusive [inhibitor, single point] | 
CCOc1ccc(NC(=O)CSc2nc(O)c(C)c(=O)n2-c2ccc(F)cc2)cc1 | inconclusive [inhibitor, full curve, poor fit] | 
COc1ccc(OCCOC(=O)c2cc(S(=O)(=O)N3CCOCC3)c(Cl)cc2Cl)cc1 | inconclusive [inhibitor, single point] | 
CCOC(=O)C1=C(C)n2c(s/c(=C/c3cccc([N+](=O)[O-])c3)c2=O)=NC1c1ccc(O)c(OC)c1 (configuration not stated) | active: 2.94 µM | 
COc1ccc(/C=C/C(=O)Nc2cccc(F)c2)cc1S(=O)(=O)N1CCOCC1 | inconclusive [inhibitor, partial curve, poor fit] | 
Cc1ccc(N(Cc2ccccc2)C(=O)c2cc(S(=O)(=O)N3CCOCC3)ccc2C)cc1 | active: 10.4 µM | 
O=C(COc1ccccc1/C=C\c1[nH]c(=O)[nH]c(=O)c1[N+](=O)[O-])Nc1ccccc1 |  | inactive: -24.7%
O=C(CSc1nnc(COc2ccc(F)cc2)o1)N1c2ccccc2CCc2ccccc21 | active: 4.15 µM | 
Cc1cccc(C)c1NC(=S)N1CCCN(C)CC1 |  | inactive: 10.9%
CC(CN1CCCC1)OC(=O)COc1ccccc1 (configuration not stated) |  | inactive: -6.01%
O=C(NC1CCCC1)c1ccccc1OCc1ccccc1 |  | inactive: -37.7%
Cc1csc(NC(=O)c2cnccn2)n1 |  | inactive: 142%
CC1(C)CC(=O)C=C(NCCN2CCN(C(=O)Cc3ccc(Cl)cc3)CC2)C1 | inconclusive [inhibitor, single point] | 
CC(C)(C)c1ccc(OCC(=O)N(c2ccccn2)C2CCCCC2)cc1 | inconclusive [inhibitor, single point] | 
NC(=O)Nc1ccc(Cl)cc1 |  | inactive: 89.6%

SMILES | Potency | activity change, negative = inhibition
CC1CC(=O)Nc2ccccc2N1S(=O)(=O)c1ccc(C(F)(F)F)cc1 (configuration not stated) | inconclusive [inhibitor, partial curve, poor fit] | 
O=C(C1CCCCC1)N1CCN(c2ccnc3cc(Cl)ccc23)CC1 | active: 1.85 µM | 
COCCn1c(SCC(=O)NC(=O)NCc2ccccc2)nc2ccccc2c1=O | inconclusive [inhibitor, single point] | 
Cc1ccc(C(=O)Nc2ncc(C)s2)s1 |  | inactive: 89.7%
O=C(N/N=C/C=C/c1ccc([N+](=O)[O-])cc1)C1COc2ccccc2O1 (configuration not stated) |  | inactive: 10.6%
COCCNC(=O)c1cc2c(=O)n3cccc(C)c3nc2n(Cc2ccncc2)c1=N | inconclusive [inhibitor, single point] | 
COc1ccc(-n2ccnc2CN2CCCC(CO)(Cc3cccc(OC)c3)C2)cc1 (configuration not stated) | inconclusive [inhibitor, single point] | 
COCCC1CCCCN1C(=O)c1ccc(OC2CCN(C(C)=O)CC2)c(OC)c1 (configuration not stated) |  | inactive: 10.4%
CN(CC(=O)Nc1ccccc1Cl)C(=O)COC(=O)c1ccc(Cl)nc1 | inconclusive [inhibitor, single point] | 
COc1ccc(-n2c(SCC(=O)NCCC(C)C)nc3ccsc3c2=O)cc1 | inconclusive [inhibitor, full curve, poor fit] | 
Cc1cc2oc(=O)cc(CN3CCCCC3C)c2cc1C(C)C (configuration not stated) | active: 14.7 µM | 
CCN(CC)c1ccc(NC(=O)c2cc(OC)cc(OC)c2)c(C)c1 | inconclusive [inhibitor, partial curve] | 
COc1ccc(CNCCC(c2ccccc2)C2CCOC(C)(C)C2)cc1 (configuration not stated) | inconclusive [inhibitor, single point] | 
Cc1ccc(C)c2[nH]c(=O)c(CN(CCCN(C)C)C(=O)NCc3ccccc3)cc12 | inconclusive [inhibitor, single point] | 
COc1ccc(F)cc1CN1CCN(C(=O)CCC(=O)Nc2nnc(C3CCCCC3)s2)CC1 | inconclusive [inhibitor, partial curve, poor fit] | 
Clc1ccc2c(c1)CCc1cccnc1C2=C1CCNCC1 | active: 13.5 µM | 
COc1cccc(NC(=O)CN(C)C(=O)c2ccc(Cl)c(S(=O)(=O)N3CCCCCC3)c2)c1 | inconclusive [inhibitor, single point] | 
CC#CC[N+](C)(C)CC(=O)c1ccccc1 |  | inactive: -23.5%
CSc1ccccc1NC(=O)COC(=O)c1ccccc1Cc1ccccc1 | inconclusive [inhibitor, full curve, poor fit] | 
CN(CC(=O)Nc1ccccc1Cl)C(=O)Cn1cnc2ccccc2c1=O | inconclusive [inhibitor, partial curve, poor fit] | 
Cc1cc(NC(=O)C2CCN(S(=O)(=O)c3cccs3)CC2)no1 | inconclusive [inhibitor, single point] | 
O=C(c1cc(COc2ccc(F)c(F)c2)on1)N1CCN(C/C=C/c2ccccc2)CC1 | inconclusive [inhibitor, partial curve] | 
O=S(=O)(NCC(c1cccnc1)N1CCN(Cc2ccccc2)CC1)c1ccccc1 (configuration not stated) | inconclusive [inhibitor, single point] | 
CCOC(=O)c1cc(-c2ccccc2)sc1NC(=O)CN1C(=O)NC(CC)(c2ccc(F)cc2)C1=O (configuration not stated) | inconclusive [inhibitor, single point] | 
